According to PubChem BioAssay AID540317 (National Center for Advancing Translational Sciences (NCATS), 2011):
Out of some 390,000 compounds screened, about 2,200 (0.56%) were called active. This list was built around the results that the source calls inconclusive (neither active nor inactive); the mix of calls is not that of the screen. The call rests on the fitted dose curve; in most records, active means well fitted inhibition curve with a large enough effect; inconclusive means small, poorly fitted or top-dose-only effect; inactive means no such curve, though single readings can be large or run the other way. A potency beside an inconclusive call is a rough fit, not a confirmed value.

target: Chromobox protein homolog 1 (Homo sapiens) (UniProt P83916); test: HTS for Inhibitors of HP1-beta Chromodomain Interactions with Methylated Histone Tails; conditions: AlphaScreen HP1-beta / biotin-H3K9me3 peptide binding; series mostly up to 114 µM; further: nearly all actives have a fitted effect of over 70% in size
Chain of UniProt P83916 (P83916 whole entry, looked up): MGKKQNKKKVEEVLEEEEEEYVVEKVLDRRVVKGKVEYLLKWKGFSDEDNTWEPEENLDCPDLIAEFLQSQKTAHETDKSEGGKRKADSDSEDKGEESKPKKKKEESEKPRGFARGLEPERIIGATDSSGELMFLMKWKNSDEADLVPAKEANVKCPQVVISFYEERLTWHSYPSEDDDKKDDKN
Method in brief: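 Compound inhibition of the preformed complex between 50 nM HP1-beta and 50 nM biotinylated H3K9me3 peptide was read by AlphaScreen. Buffer was PBS pH 7.4 with 0.01% Tween-20. Incubations ran 30 min at room temperature, with 10 ug/mL donor/acceptor beads.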
Potency means the concentration at half of the fitted maximal effect; tags describe the fitted curve by direction and shape.

Row | Compound | Potency
1 | COc1cc(CN2CCN(C(=O)c3cccc4ccccc34)CC2)cc(OC)c1OC | inconclusive: 50.1 µM [inhibitor, partial curve, poor fit]
2 | Cc1ccc(NC(=S)N2CCCC(CO)C2)c(C)c1 (stereo not drawn) | inactive
3 | CNS(=O)(=O)c1cccc(C(=O)Nc2cccc(Cl)c2)c1 | inactive
4 | CCOC(=O)c1ccc(NC(=O)CSc2nc(C)cc(=O)[nH]2)cc1 | inconclusive: 79.4 µM [inhibitor, partial curve]
5 | COc1ccc(-n2nc([N+](=O)[O-])c(=NCCc3ccc(C)cc3)n2O)cc1 | inconclusive: 20 µM [inhibitor, full curve]
6 | Cc1ccc(NC(=O)CN(c2ccc(Cl)cc2)S(=O)(=O)c2cc([N+](=O)[O-])ccc2Cl)cc1 | inconclusive: 28.2 µM [inhibitor, single point]
7 | CCOc1ccccc1N=Nc1c(C)[nH]n(-c2ccccc2)c1=O | inconclusive: 10 µM [inhibitor, full curve, poor fit]
8 | CCOC(=O)c1cnc2c(OC)cccc2c1N1CCN(c2ccc(OC)cc2)CC1 | inconclusive: 70.8 µM [inhibitor, single point]
9 | COc1cc(C2c3cc4c(cc3OC(NCc3ccccc3)C2C)OCO4)cc(OC)c1OC (stereo not drawn) | inconclusive: 15.8 µM [inhibitor, full curve, poor fit]
10 | O=[N+]([O-])c1ccc(Cl)c(/C=N/n2c(COc3ccccc3)n[nH]c2=S)c1 | inconclusive: 12.6 µM [inhibitor, full curve, poor fit]
11 | CCOC(=O)c1nn2c(C(F)(F)F)cc(-c3ccc(OC)cc3)nc2c1Br | inactive
12 | O=C1c2ccccc2C(=O)c2cc(S(=O)(=O)Nc3ccccc3)ccc21 | inconclusive: 15.8 µM [inhibitor, full curve, poor fit]
13 | CCOc1ccc(NC(=O)CCc2nc3cccnc3n2-c2ccccc2)cc1 | inactive
14 | CC(NC(=O)COC(=O)c1ccc([N+](=O)[O-])o1)c1ccccc1 (stereo not drawn) | inactive
15 | COc1ccccc1NC(=O)C1CCN(c2ncccn2)CC1 | inconclusive: 31.6 µM [inhibitor, single point]
16 | CCN1C(C(=O)c2ccccc2)=C(OC(=O)COc2ccc(OC)cc2)c2ccccc2S1(=O)=O | inactive
17 | S=C(NCC1CCCO1)N1CCN(c2nc(-c3ccc(Cl)cc3)cs2)CC1 (stereo not drawn) | inconclusive: 20 µM [inhibitor, partial curve, poor fit]
18 | Cc1cc(C)cc(S(=O)(=O)c2cnc3ccccc3n2)c1 | inconclusive: 3.98 µM [inhibitor, full curve, poor fit]
19 | COc1ccc(CCNC(=O)c2cc3sccc3n2C)cc1OC | inconclusive: 28.2 µM [inhibitor, single point]
20 | CN(/N=C/c1cc(Cl)cc(Cl)c1O)c1c(Cl)cccc1[N+](=O)[O-] | inconclusive: 39.8 µM [inhibitor, partial curve]
21 | CCOC(=O)/C(=C\c1ccc(OC(F)F)cc1)C1=Nn2c(nnc2-c2ccc(Cl)cc2)SC1 | inconclusive: 39.8 µM [inhibitor, single point]
22 | CCCN1C(=O)CC(=O)N=C1SCC(=O)Nc1ccccc1F | inactive
23 | CCN(c1ccccc1C(=O)O)S(=O)(=O)c1ccc2[nH]c(=O)[nH]c2c1 | inactive

Row | Compound | Potency
24 | Cc1c(N(C(=O)c2cnccn2)C2(C(=O)NC3CCCC3)CCCCC2)c(=O)n(-c2ccccc2)n1C | inactive
25 | O=C(Nc1cnccc1C(F)(F)F)NC1CCCCC1 | inactive
26 | O=C1OC/C(=C(/O)c2ccc(Cl)cc2)C1=O | inactive
27 | CCOc1ccc(Nc2ccc(S(=O)(=O)N3CCN(C)CC3)cc2[N+](=O)[O-])cc1OCC | inconclusive: 14.1 µM [inhibitor, partial curve]
28 | CC1CN(C(=S)NC(=O)C2CCCCC2)CC(C)O1 (stereo not drawn) | inconclusive: 35.5 µM [inhibitor, partial curve, poor fit]
29 | CN(C)c1ccc(/C=N/NC(=S)NCc2ccccc2)cc1 | active: 50.1 µM
30 | COc1ccc(OC)c2c1nc1n2CCS1 | inconclusive: 50.1 µM [inhibitor, partial curve]
31 | C#Cc1ccc([C@@H]2C=C(C(=O)O)O[C@H](OCC)[C@H]2CCCO)cc1 | inconclusive: 70.8 µM [inhibitor, partial curve]
32 | Fc1ccc(C(c2nnc(-c3ccccc3)o2)N2CCN(c3ccccc3)CC2)c(Cl)c1 (stereo not drawn) | inactive
33 | O=C(NC(=S)Nc1ccccc1C(=O)O)c1cncc(Br)c1 | inconclusive: 10 µM [inhibitor, full curve]
34 | O=C(CCc1ccccc1)NNC(=S)NCCc1ccccc1 | inconclusive: 35.5 µM [inhibitor, single point]
35 | COc1ccc(-c2cc([C@H]3[C@@H]4C=CCC[C@@]4(C)C(=O)N3Cc3ccccc3)ccc2F)cc1OC | inactive
36 | Cc1oc2c(cc(NS(=O)(=O)c3ccc(F)cc3)c3ccccc32)c1C(=O)O | inconclusive: 56.2 µM [inhibitor, partial curve, poor fit]
37 | CCN(CC(=O)Nc1ccc(NC(C)=O)cc1)C(=O)Cc1ccc(Cl)c(Cl)c1 | inactive
38 | Cc1c(C)n(Cc2ccc(F)cc2)c2ccc(C(=O)NCCCN3CCOCC3)cc12 | inconclusive: 39.8 µM [inhibitor, partial curve]
39 | CC(C)NC(=S)N/N=C/c1cc(Br)ccc1O | inconclusive: 44.7 µM [inhibitor, partial curve, poor fit]
40 | COc1ccc(OC)c(/C=C/C(=O)Oc2ccc(C(C)=O)cc2)c1 | inactive
41 | COC(=O)c1cc(O)cc(OC)c1Oc1cc(C)cc(O)c1C(=O)O | inconclusive: 10 µM [inhibitor, full curve, poor fit]
42 | COc1ccc2c(c1)C(=C(C#N)C#N)C(=O)N2CCc1ccccc1 | active: 39.8 µM
43 | CC(=O)C1=C(O)C(=O)N(C)C1c1ccccc1[N+](=O)[O-] (stereo not drawn) | inconclusive: 44.7 µM [inhibitor, partial curve, poor fit]
44 | Cc1ccc2nc(Cl)c3cc(C(=O)NC4CCCCC4)sc3c2c1 | inactive
45 | O=C(CC1CCCC1)Nc1cc(S(=O)(=O)N2CCOCC2)ccc1O | inconclusive: 17.8 µM [inhibitor, partial curve]
46 | O=C1/C(=C/c2cccs2)CCC/C1=C\c1cccs1 | inconclusive: 44.7 µM [inhibitor, partial curve]

Row | Compound | Potency
47 | Cc1ccc(-c2cnc(NCc3c(F)cccc3Cl)n2C)cc1 | inconclusive: 17.8 µM [inhibitor, full curve]
48 | CCOC(=O)C(=NC1CCS(=O)(=O)C1)NNc1ccccc1Cl (stereo not drawn) | inconclusive: 35.5 µM [inhibitor, full curve]
49 | CCOC(=O)C1CCCN(C(=O)c2ccc3[nH]c4c(c3c2)CC(C)CC4)C1 (stereo not drawn) | inconclusive: 39.8 µM [inhibitor, partial curve, poor fit]
50 | O=C(c1cccs1)N1CCN(Cc2ccccc2[N+](=O)[O-])CC1 | inconclusive: 15.8 µM [inhibitor, full curve]
51 | O=C(CN1CCc2ccccc2C1)Nc1ccccc1C(F)(F)F | inconclusive: 17.8 µM [inhibitor, full curve]
52 | CCCCC(C(=O)O)C(C)CC(=O)NNC(=O)c1ccco1 (stereo not drawn) | inactive
53 | CC(=O)c1sc(NC(=O)C2CC(=O)N(Cc3ccco3)C2)nc1-c1ccccc1 (stereo not drawn) | inconclusive: 70.8 µM [inhibitor, partial curve]
54 | CCC(=O)OCCNc1cc(Sc2nc3ccccc3[nH]2)c2nonc2c1[N+](=O)[O-] | inconclusive: 39.8 µM [inhibitor, single point]
55 | COc1ccccc1NS(=O)(=O)c1cc(NC(=O)c2ccc(NC(C)=O)cc2)ccc1N1CCOCC1 | inconclusive: 39.8 µM [inhibitor, partial curve]
56 | COc1ccccc1OCCC(=O)OCC(=O)c1[nH]c(C)c(C(C)=O)c1C | inactive
57 | CCOc1cc(C(=S)N2CCC(O)CC2)ccc1OS(=O)(=O)c1ccc(Br)cc1 | inconclusive: 25.1 µM [inhibitor, full curve]
58 | CN(C)c1ccc(NC(=O)Cc2ccccc2)c2ccccc12 | inactive
59 | Cc1ccc(/C=C/C(=O)Nc2ccc(N(C)C)cc2)o1 | inconclusive: 28.2 µM [inhibitor, partial curve, poor fit]
60 | O=C(NCc1ccco1)c1cccc(S(=O)(=O)N2CCCC2)c1 | inconclusive: 89.1 µM [inhibitor, partial curve, poor fit]
61 | CCc1noc(C)c1C(=O)Nc1ccccc1C(C)(C)C | inactive
62 | C[C@](N)(Cc1ccc(O)c(O)c1)C(=O)O | inconclusive: 28.2 µM [inhibitor, partial curve]
63 | COc1ccccc1C(=O)N1CCN(Cc2c[nH]c3ccccc23)CC1 | inconclusive: 25.1 µM [inhibitor, partial curve]
64 | CN(CCC#N)C(=O)COC(=O)c1c2c(nc3ccccc13)/C(=C/c1ccco1)CC2 | inconclusive: 50.1 µM [inhibitor, partial curve, poor fit]
65 | CCN1CCN(C(=S)NC(=O)c2cccc(Br)c2)CC1 | inconclusive: 50.1 µM [inhibitor, partial curve]
66 | COc1cc(/C=C2/C(=O)NN(c3cccc(C)c3)C2=O)cc([N+](=O)[O-])c1O | inconclusive: 39.8 µM [inhibitor, partial curve]
67 | CCC(CC)NCc1ccc2c(c1)c1ccccc1n2CC | inconclusive: 7.08 µM [inhibitor, full curve]
68 | CC(C)=NNc1nc2c(c(=O)[nH]c(=O)n2C)n1CCc1ccccc1 | inconclusive: 79.4 µM [inhibitor, partial curve, poor fit]
